About 2,200 (0.71%) of roughly 310,000 compounds showed an effect of 50% or more. Effects have a minus sign here. The list shows a part of the results.

In the assay the target is human ether-à-go-go-related gene (hERG) potassium channel (human, UniProt Q12809). Briefly: primary screen, population patch clamp on CHO cells stably expressing hERG.
Sequence of human ether-à-go-go-related gene (hERG) potassium channel (Q12809 whole entry, looked up): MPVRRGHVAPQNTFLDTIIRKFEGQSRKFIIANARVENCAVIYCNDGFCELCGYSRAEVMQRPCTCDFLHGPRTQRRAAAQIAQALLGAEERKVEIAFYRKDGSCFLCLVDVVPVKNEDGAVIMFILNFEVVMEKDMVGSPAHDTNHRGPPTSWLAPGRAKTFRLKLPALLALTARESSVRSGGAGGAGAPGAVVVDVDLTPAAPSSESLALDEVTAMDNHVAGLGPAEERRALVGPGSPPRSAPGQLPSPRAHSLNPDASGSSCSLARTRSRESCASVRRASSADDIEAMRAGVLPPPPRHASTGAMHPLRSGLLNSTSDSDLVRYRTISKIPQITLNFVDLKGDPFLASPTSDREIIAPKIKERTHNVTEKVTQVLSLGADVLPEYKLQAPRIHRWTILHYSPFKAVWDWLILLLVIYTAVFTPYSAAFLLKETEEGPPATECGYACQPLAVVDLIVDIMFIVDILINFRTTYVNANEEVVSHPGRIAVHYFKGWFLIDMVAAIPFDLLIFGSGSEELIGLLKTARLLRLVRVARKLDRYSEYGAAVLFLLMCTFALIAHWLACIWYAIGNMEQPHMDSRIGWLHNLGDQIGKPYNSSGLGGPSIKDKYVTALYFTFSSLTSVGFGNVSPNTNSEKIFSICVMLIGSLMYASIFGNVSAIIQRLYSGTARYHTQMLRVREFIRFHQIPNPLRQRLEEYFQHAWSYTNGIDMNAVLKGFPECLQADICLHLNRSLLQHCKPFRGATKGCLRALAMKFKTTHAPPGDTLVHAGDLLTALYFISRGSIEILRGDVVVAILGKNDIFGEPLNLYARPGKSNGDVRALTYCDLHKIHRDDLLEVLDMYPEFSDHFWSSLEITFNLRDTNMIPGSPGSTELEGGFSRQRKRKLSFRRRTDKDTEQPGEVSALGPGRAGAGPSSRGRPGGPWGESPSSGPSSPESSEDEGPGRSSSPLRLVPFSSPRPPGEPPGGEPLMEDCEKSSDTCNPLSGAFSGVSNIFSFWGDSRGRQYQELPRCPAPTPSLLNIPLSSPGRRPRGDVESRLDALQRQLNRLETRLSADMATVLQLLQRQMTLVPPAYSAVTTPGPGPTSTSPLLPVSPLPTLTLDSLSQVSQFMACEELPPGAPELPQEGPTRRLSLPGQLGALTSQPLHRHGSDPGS
For the compound `O=C(NCc1ccccn1)C(=O)NCC(c1ccco1)N1CCN(c2ccc(F)cc2)CC1` (stereo not drawn), the “hERG current change (%, negative = inhibition) at 1uM” value is listed as -1.46%.
On to `CCOc1ccccc1N1CCN(C(=O)c2csc(C)c2CC)CC1`, for which the “hERG current change (%, negative = inhibition) at 1uM” value is reported as 6.98%.
As for `CCCNC(=O)OC[C@H]1O[C@H](CCO/N=C/[C@@H](OC)[C@H](C)/C=C/CC(=O)OC)C=C[C@@H]1Oc1ccc(OC)cc1`, the figure is 10.1%.
As for `Cc1ccc(N(CC(=O)N=Nc2c(O)[nH]c3ccccc23)S(C)(=O)=O)c(C)c1`, the figure is -1.47%; as for `COC(=O)C(NC(=O)c1cccnc1Cl)C(C)C` (stereo not drawn), 7.42%; as for `Cc1ccc(S(=O)(=O)NC(C)(C)CSc2nnc(Nc3ccccc3)s2)cc1`, 4.5%.
With `Cc1noc(/C=C/c2ccco2)c1S(=O)(=O)N1CCC(C(=O)Nc2ccc(Cl)cn2)CC1`, the “hERG current change (%, negative = inhibition) at 1uM” value is 7.96%.
Turning to `CC(C)[C@H](N)c1cn([C@@H](CC(N)=O)C(=O)N2CCNCC2)nn1`, the “hERG current change (%, negative = inhibition) at 1uM” value is 10.2%.
As for `Cc1ccc(CCNC(=O)CCS(=O)(=O)c2cc3c(cc2C)NC(=O)CO3)cc1`, the “hERG current change (%, negative = inhibition) at 1uM” value turned out to be 4.09%.
Turning to `COCCn1c(CCc2ccccc2)n[nH]c1=S`, the “hERG current change (%, negative = inhibition) at 1uM” value is reported as 10.6%.
As for `CCOC(=O)c1ccc(Nc2nc(N)c3cc(OC)c(OC)cc3n2)cc1`, the figure is -0.23%; as for `O=C(NC1CCN(C(=O)Nc2ccc(F)cc2)CC1)c1ccccc1F`, 9.2%.
Then `CCOCCCNC(=O)c1cc(Sc2ccc(C)cc2)nc2ccccc12`, with 7.78%; and `CCCn1c(NC(=O)CSCC(=O)Nc2cc(C)on2)nc2ccccc21`, with 18.4%; and `COc1ccc(-c2nnnn2-c2ccccc2OC)cc1`, with -8.21%.
Then `CSc1nc(=S)n(-c2ccccc2)c(C)c1C(C)=O`, with 10.3%.
`Cc1noc(C)c1CSc1nnc2ccccn12`: the “hERG current change (%, negative = inhibition) at 1uM” value was determined as 7.93%.
Then `Cc1ccsc1-c1nc(CN2CCCC2c2ccc(F)cc2)c(C)o1` (stereo not drawn), with 11.6%; and `CC(C)CN(C(=O)CN1CCN(c2cccc(Cl)c2)CC1)c1c(N)n(CC(C)C)c(=O)[nH]c1=O`, with 13.7%.
Then `Cc1cc(C)nc(N2C(=O)CC(Cc3ccccc3)C2=O)n1` (stereo not drawn), with 16.5%.
Then `CCC(=O)N1CCc2cc(Br)cc(S(=O)(=O)CCC(=O)N(CC)CC)c21`, with 9.07%.
Consider `Cc1nc(N2CCc3ccccc3C2)[nH]c(=O)c1Cc1ccccc1`, for which the “hERG current change (%, negative = inhibition) at 1uM” value is on record as 10.5%.
Take `CC1=NN(C(=O)c2cccnc2)C(O)(C(F)(F)F)C1` (stereo not drawn): the “hERG current change (%, negative = inhibition) at 1uM” value is given as 5.67%.
Then `CC(C)Oc1ccc(NC(=O)c2ccncc2)cc1`, with 8.51%; and `Nc1nc(NCC2CCCO2)nc(Nc2ccccc2F)c1[N+](=O)[O-]` (stereo not drawn), with 16.4%.
Consider `CC1CCCCN1Cc1nc2c(c(=O)n(C)c(=O)n2C)n1Cc1c(F)cccc1Cl` (stereo not drawn), for which the “hERG current change (%, negative = inhibition) at 1uM” value was determined as 11.4%.
As for `O=[N+]([O-])c1ccc(Cl)c([N+](=O)[O-])c1`, the figure is 0.507%.
As for `Cc1cc(S(=O)(=O)NCc2ccc(S(N)(=O)=O)cc2)c(C)s1`, the figure is 11%; as for `O=S(=O)(c1ccc2c(c1)OCCO2)N1CCC(n2nnc3cc(F)ccc32)CC1`, -0.696%; as for `Cc1cccc(OCC(=O)NCC(=O)N/N=C/c2ccccc2)c1`, 10.4%.
As to `Cc1cccc(Cn2c(=O)c3c(nc4n3CCN4Cc3ccco3)n(C)c2=O)c1`, the “hERG current change (%, negative = inhibition) at 1uM” value is reported as -5.64%.
As for `COc1ccc(CCNC(=O)c2ccc(CS(=O)(=O)Cc3cccc(C)c3)o2)cc1OC`, the figure is 8.68%; as for `CN(C)c1nc(Oc2ccc(N)cc2)nc(N(C)C)n1`, 4.54%; as for `Cc1cc(N)nc(SCC(=O)N2C(C)CCCC2C)n1` (stereo not drawn), 10.2%.
Turning to `CCOc1ccc(C2=Nn3c(nnc3-c3ccc(OC)cc3)SC2)cc1`, the “hERG current change (%, negative = inhibition) at 1uM” value turned out to be 1.06%.
On to `CCSc1ccc([C@@H]2[C@H]3C(=O)N(C)C(=O)[C@H]3[C@]3(C(=O)OC)CCCCN23)cc1.O=C(O)C(F)(F)F`, for which the “hERG current change (%, negative = inhibition) at 1uM” value came to 14.2%.
As for `CCSC1=C(C#N)C(CC(C)C)C2=C(CCCC2=O)N1` (stereo not drawn), the figure is 15.5%.
Take `O=C(Cn1ccc(=O)[nH]c1=O)Nc1ccc(C(=O)O)c(O)c1`: the “hERG current change (%, negative = inhibition) at 1uM” value came out at 16%.
`Cc1nn(C)c(Cl)c1CN1CCC(Oc2ccc(C(=O)N3CCCC3)cc2)CC1`: the “hERG current change (%, negative = inhibition) at 1uM” value is recorded as 14.2%.
As for `CC(C)Oc1ccccc1OCCCCn1cnc2ccccc2c1=O`, the figure is -0.415%; as for `O=C(COc1ccccc1)NCC(c1ccco1)N1CCCCC1` (stereo not drawn), 2.74%.
In the case of `NC(=O)C1CCN(C(=O)COCc2cc(-c3ccc4c(c3)OCO4)on2)CC1`, the “hERG current change (%, negative = inhibition) at 1uM” value amounted to 11.1%.
Turning to `CC(CCc1ccccc1)NC(=O)COC(=O)C1CCC(C(C)(C)C)CC1` (stereo not drawn), the “hERG current change (%, negative = inhibition) at 1uM” value was found to be 17%.
As for `CCOC(=O)Cc1cc(=O)n2[nH]c(C(C)(C)C)cc2n1`, the figure is 9.12%; as for `Cc1c(N)cccc1N`, 7.39%; as for `COc1ccc2cc(/C(C)=N/NC(=O)C3CC3)ccc2c1`, 3.73%.
With `O=S(=O)(c1ccccc1)N1CCN(C(=S)Nc2ccc(F)cc2)CC1`, the “hERG current change (%, negative = inhibition) at 1uM” value was 10.1%.
Then `Cc1ccc(NC(=O)Cn2c(=O)n(CCCCC(=O)NCc3ccco3)c(=O)c3ccccc32)cc1`, with 2.83%; and `Cc1cc(C)c(C#N)c(SCc2[nH]nc3c2C(c2ccccc2)C(C#N)=C(N)O3)n1` (stereo not drawn), with 4.23%; and `CC(O)Cn1ccccc1=N` (stereo not drawn), with 8.16%.
Regarding `Cc1ccc(C(c2nnnn2CCc2ccccc2)N2CCC(C)CC2)cc1.Cl` (stereo not drawn), the “hERG current change (%, negative = inhibition) at 1uM” value amounted to 14.8%.
Turning to `O=C(c1ccc2ccccc2c1)C1CCCN(C(=O)CN2C(=O)CSC2=O)C1` (stereo not drawn), the “hERG current change (%, negative = inhibition) at 1uM” value is listed as -7.59%.
As for `O=C(Cn1nnc2ccccc2c1=O)NCCc1ccccc1`, the “hERG current change (%, negative = inhibition) at 1uM” value was -4.29%.
Regarding `O=C(Nc1cccc(Br)c1)c1cc(=O)c2ccccc2o1`, the “hERG current change (%, negative = inhibition) at 1uM” value is given as 18.6%.
As for `CN(C)CCNC(=O)/C=C/c1cn(-c2ccccc2)nc1-c1cc2ccccc2oc1=O`, the figure is 4.97%; as for `CCn1c(SCC(=O)NCc2ccc(F)cc2)nc2c(c1=O)SC(C)C2` (stereo not drawn), -10.2%.
As for `Cc1cc(NC(=O)CCC(=O)N(CC(=O)NCC2CCCO2)c2ccc(C(C)C)cc2)no1` (stereo not drawn), the “hERG current change (%, negative = inhibition) at 1uM” value is listed as 9.38%.
As for `CCCCNC(=O)[C@@H]1CC=C[C@@H]2CCN(Cc3ccc(Cl)c(Cl)c3)C(=O)[C@@H]21`, the figure is 3.92%.
Turning to `Nc1ccc(-c2nc3ccc(N)cc3o2)cc1`, the “hERG current change (%, negative = inhibition) at 1uM” value is recorded as 15.7%.
As for `O=C(Nc1nnc(-c2ccc(F)cc2)s1)Nc1ccccc1F`, the figure is 11.9%.
As for `Cc1ccc(S(=O)(=O)N(C)C)cc1NC(=S)N1CCN(Cc2ccc3c(c2)OCO3)CC1`, the figure is 7.23%; as for `Cn1nc(C(F)(F)F)c(C(=O)Nc2ccc(F)cc2F)c1Sc1ccc(Cl)cc1`, 6.25%.
As for `CCC(C(=O)Oc1c(C(C)C)cccc1C(C)C)c1ccccc1` (stereo not drawn), the figure is -0.176%; as for `COc1ccc(N=C2S/C(=C\c3cc(C)n(C)c3C)C(=O)N2CC(C)C)cc1`, 3.13%; as for `CCc1nnc(NS(=O)(=O)c2ccc(NC(=O)c3cccc(OC(F)(F)C(F)F)c3)cc2)s1`, -0.458%.
In the case of `CC1CCCC(C)N1S(=O)(=O)c1ccc(NC(=O)c2ccccc2C(=O)N2CCOCC2)cc1` (stereo not drawn), the “hERG current change (%, negative = inhibition) at 1uM” value turned out to be 7.16%.
As for `Cc1ccsc1C(=O)OCc1cc(=O)n2ccsc2n1`, the figure is 4.61%; as for `O=C(Nc1ccccc1)c1ccc(S(=O)(=O)NCc2cccnc2)cc1`, 14.8%; as for `CC(=O)N(Cc1cccs1)C1CCOC(C)(C)C1` (stereo not drawn), 7.46%.
As for `COc1cc2nc(CC(C)C)n(NC(=O)c3ccccc3)c(=O)c2cc1OC`, the figure is 10.5%.
`COc1cccc(-c2csc(NC(=O)Nc3ccccc3)n2)c1`: the “hERG current change (%, negative = inhibition) at 1uM” value worked out at 11.4%.
As for `O=C(Nc1ccccc1)N1CCCN(c2c(Cl)cncc2Cl)CC1`, the figure is 11.7%.
For `CCOC(=O)COn1c(-c2cccc(Cl)c2)nc2ccc([N+](=O)[O-])cc21`, the “hERG current change (%, negative = inhibition) at 1uM” value is 14.9%.
Then `O=C(CSc1nnc(-c2ccncc2)n1-c1ccccc1Cl)Nc1ccc(C(=O)O)cc1`, with 23.2%; and `COc1cccc2cc(C(=O)N(Cc3ccccc3)CC3CCCO3)c(=O)oc12` (stereo not drawn), with 6.91%.
Turning to `COc1ccc(NC(=O)CSc2nnc(-c3ccc(F)cc3)o2)cn1`, the “hERG current change (%, negative = inhibition) at 1uM” value is given as -5.69%.
As for `c1cc2c(cc1Nc1nc(-c3ccc4c(c3)OCO4)cs1)OCCO2`, the figure is 12.2%; as for `Cc1csc(NC(=O)CCCSc2nc3ccccc3s2)n1`, -2.7%.
Turning to `O=C(c1cc(COc2cccc3cnccc23)on1)N1CCC(c2ccccc2Cl)C1` (stereo not drawn), the “hERG current change (%, negative = inhibition) at 1uM” value is 16.8%.
Then `COc1ccc(C2C(C(=O)Nc3cc(OC)c(OC)c(OC)c3)c3ccccc3C(=O)N2C)cc1` (stereo not drawn), with 16.1%; and `COc1ccccc1-c1csc(NC(=O)c2ccc(N3C(=O)CCC3=O)cc2)n1`, with 5.85%; and `COC(=O)Cn1c2c(c3cc(C)ccc31)CCCC2NC(C)c1ccccc1` (stereo not drawn), with 13.8%.
As for `O=C1COc2ccccc2N1Cc1c(F)cccc1Cl`, the figure is 1.77%; as for `O=C(CCl)Nc1cccc(Oc2ccccc2)c1`, 9.63%.
Then `Cc1ccc(N(CC(=O)N/N=C/c2ccc(OC3CSC3)cc2)S(=O)(=O)c2ccccc2)c(C)c1`, with 14.7%; and `COc1ccc(OC)c2sc(NC(=O)CCSc3ccccc3)nc12`, with 15.3%; and `COc1ccc(Cn2nnnc2C(C(C)C)N(Cc2ccco2)Cc2cccs2)cc1` (stereo not drawn), with 13%.

Source of the values: publication PMC4336329 (PLoS ONE, 2015).
